# From PubChem BioAssay AID1240 (Sanford-Burnham Center for Chemical Genomics, 2008)
# Screen size: about 50,000 compounds; about 800 (1.6%) showed an effect of 50% or more. The list shows a part of the results.
# Molecular target: Bcl-2-like protein 10 (Homo sapiens) (UniProt Q9HD36)
# Assay: Phenotype converters, Bcl-B/TR3 peptide binding displacement, primary biochemical FP (AID 1240);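 also: 0% = Bcl-B with tracer peptide and DMSO and 100% = tracer peptide lacking Bcl-B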
# Settings: GST-Bcl-B / FITC-TR3 peptide fluorescence polarization; stronger effect = higher value; compound at 3.75 mg/L
# Chain of UniProt Q9HD36 (Q9HD36 whole entry, looked up): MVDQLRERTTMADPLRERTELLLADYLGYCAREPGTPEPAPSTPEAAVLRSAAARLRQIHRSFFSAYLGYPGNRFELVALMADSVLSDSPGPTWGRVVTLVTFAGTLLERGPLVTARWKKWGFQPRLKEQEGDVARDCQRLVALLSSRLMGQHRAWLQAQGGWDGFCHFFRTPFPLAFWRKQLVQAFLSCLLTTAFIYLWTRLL
row,Compound,displacement [%]
1,CC1=C(C(=O)OC2CCCC2C)C(c2ccccc2)NC(=O)N1 (stereo not given),0.5
2,CCOc1cc(/C=C(\C#N)c2nc3ncc(Br)cc3[nH]2)ccc1O,0.5
3,COc1ccc(-n2nc3cc(C)c(NC(C)=O)cc3n2)cc1,3.3
4,CC(=O)c1nc2cc([N+](=O)[O-])ccc2n1Cc1ccccc1,1.8
5,O=C(NCCNc1c(Cl)cccc1[N+](=O)[O-])c1cc(F)c(F)cc1Cl,9.7
6,O=[N+]([O-])/C=C/c1ccc(-c2ccc(Cl)cc2)o1,14.7
7,COC(=O)c1ccc(NC(=O)COc2ccccc2C(C)C)cc1,14.3
8,COc1ccc(S(=O)(=O)N2CCN(c3ccc(F)cc3)CC2)cc1,-12
9,COC(=O)c1coc(-c2ccc(C)cc2)c1C(=O)OC,-5.5
10,Cc1ccc2c(c1)-c1c(ssc1=S)C(C)(C)N2C(=O)CC(C)C,10.5
11,O=C1OC(c2ccc(Cl)cc2)=C/C1=C\c1ccc(-c2ccccc2C(=O)O)o1,4
12,O=C1OC(c2ccccc2)=C/C1=C/N1CCOCC1,-5.9
13,O=c1c2ccccc2c(-c2ccccc2)nn1-c1cc(N2CCN(CCO)CC2)ccc1[N+](=O)[O-],-5.5
14,COCCNC(=O)CN(c1ccc(OC)cc1OC)S(=O)(=O)c1ccc(C)cc1,8.1
15,CCOC(=O)C1CCCN(C2CC(=O)N(c3ccc(C)cc3)C2=O)C1 (stereo not given),2.3
16,O=C(NC(=S)Nc1ccccc1O)c1cccnc1,-6.1
17,Cc1[nH]n(-c2ccccc2)c(=O)c1C=O,-0.7
18,COc1ccc(OC)c(C2CC(O)(c3ccccc3OC)C(C)C(c3cc(OC)ccc3OC)N2)c1 (stereo not given),12.1
19,CCCOc1ccc(/C=C/C(=O)c2cccs2)cc1OCC,-13.4
20,COC(=O)c1ccc(/C=C2\C(=O)NC(=S)N(c3ccc(Br)cc3C)C2=O)cc1,16.9
21,COc1ccc(C2NC(=S)NC(C)=C2C(=O)Nc2ccccc2)cc1OC (stereo not given),-9.2
22,O=C1C=CC(=O)N1c1ccc(Oc2ccc(S(=O)(=O)c3ccc(Oc4ccc(N5C(=O)C=CC5=O)cc4)cc3)cc2)cc1,-0.3

row,Compound,displacement [%]
1,CCOC(=O)C(C)Oc1ccc2oc(C)c(C(=O)OCCOC)c2c1 (stereo not given),5.9
2,O=C(Nc1ccc(NC(=O)c2ccc(Cl)cc2Cl)cc1)c1ccccc1O,14.8
3,CCN(CC)c1c(-c2ccccc2)c2cc(C)ccc2[nH]c1=O,-15.9
4,Cc1ccc(OCC(=O)NCc2ccncc2)cc1,-0.3
5,CCOC(=O)c1c(-n2c(C)cc(/C=C3/SC(N)=NC3=O)c2C)sc2c1CCCC2,-33.6
6,C=CCN(CC=C)C(=O)CCc1ccccc1,-9.8
7,CC(Cc1ccccc1)NC(=O)CCC(=O)NC(C)Cc1ccccc1 (stereo not given),20.2
8,CCCCOC(=O)c1ccc(NC(=O)C(C)(C)C)cc1,35.7
9,CCCOc1cccc(C(=O)Nc2c(C)ccc3nsnc23)c1,9
10,CC(=O)C1=C(Nc2ccc(Br)cc2)CC(C)(O)C(C(C)=O)C1c1ccc(Cl)cc1 (stereo not given),-7.5
11,CC1(C)Cc2ccccc2C(Nc2ccc(Cl)cc2)=N1,7.2
12,CCOc1cc(/C=C2\C=C(c3ccc(C)cc3)OC2=O)ccc1OC(C)=O,111
13,N#CCc1ccc(NC(=O)c2cc(Cl)cc(Cl)c2O)cc1,2.7
14,COc1cc(C(=O)Nc2ccc(C(C)C)cc2)c([N+](=O)[O-])cc1OC,11.1
15,CCOC(=O)c1c(N)sc2c1CCC(c1ccccc1)C2 (stereo not given),-1.2
16,O=C(O)C1Cc2c([nH]c3ccccc23)C(c2ccccc2F)N1 (stereo not given),24.3
17,Cc1c(NC(=O)c2ccc3c(c2)OCCO3)cccc1-c1nc2ncccc2o1,-30
18,O=C(/C=C/c1cccs1)Nc1ncc(Cc2ccccc2Cl)s1,10.7
19,CCn1c(C(O)c2ccccc2)nc2ccccc21 (stereo not given),1.5
20,CC(C)(C)NC(=O)c1cnn2c1NC(c1ccc(F)cc1)CC2C(F)(F)F (stereo not given),5.1
21,Cc1ccc(C2(c3ccc(C)cc3)CC2C(=O)NCCc2ccccc2)cc1 (stereo not given),-12.6
22,Cc1ccc(CNC(=O)C(=O)Nc2ccccc2Br)cc1,5.7

row,Compound,displacement [%]
1,Cc1ccc(S(=O)(=O)N2CCN(Cc3c[nH]c4ccccc34)CC2)cc1,-7.5
2,Cc1c(C)c(C)c(C(=O)Nc2ccc(Cl)c(Cl)c2)c(C)c1C,12.4
3,O=C(NCCN1CCOCC1)C1CC2CCC1C2 (stereo not given),0.3
4,Nc1ccccc1N=CC1=C(O)CNC1=O,37.4
5,Cc1ccc(C=Nc2cc(C)on2)c(O)c1,-15.4
6,Cn1c(=O)n(CCOc2ccc(F)cc2)c2ccccc21,2.6
7,O=c1c2ccccc2c(-c2ccc(F)cc2)nn1-c1cc(Cl)ccc1[N+](=O)[O-],10.5
8,NC(=O)Cn1cc(/C=C2\C(=O)NC(=O)N(Cc3ccccc3)C2=O)c2ccccc21,17
9,O=C1N=C(N2CCCC2)S/C1=C\c1ccc(O)cc1,-15.4
10,O=S(=O)(NCc1cccnc1)c1ccc(Cl)c(Cl)c1,-6.7
11,CCC(=O)NC(Nc1ccc(C)cn1)(C(F)(F)F)C(F)(F)F,10
12,Nc1ccc2nc(SCc3ccc(C(=O)O)cc3)sc2c1,0.9
13,Cc1cccc(CN2CCN(C(=O)c3ccco3)CC2)c1,0.3
14,CC(Oc1ccc(Br)cc1)C(=O)N/N=C/c1ccccc1O (stereo not given),3.3
15,NC(=O)c1ccccc1NC(=O)c1cc2ccccc2o1,-34.7
16,O=C(Cn1nnc(-c2ccccc2Cl)n1)N/N=C/c1cc(Cl)cc(Cl)c1O,-8.4
17,CCOC(=O)C(CC)P(=O)(c1ccccc1)c1ccccc1 (stereo not given),20.9
18,CC(=O)c1ccc(Nc2ncnc(Nc3ccc(C(C)=O)cc3)c2[N+](=O)[O-])cc1,-5.3
19,COc1cc(C2N(c3ccccc3)CCN2c2ccccc2)ccc1OC(C)=O,5.9
20,Cn1c(-c2ccccc2Br)n[nH]c1=S,4.6
21,O=C(O)c1ccc(Nc2nc(-c3ccccc3)c3ccccc3n2)cc1,8.7
22,O=C1C(=O)N(c2nccs2)C(c2cccc(Cl)c2)/C1=C(\O)c1ccc(Cl)cc1 (stereo not given),11.7

row,Compound,displacement [%]
1,COc1ccc(C2Nc3ccc(C(=O)c4ccccc4)cc3NC3=C2C(=O)CCC3)cc1 (stereo not given),-0.5
2,Cc1cccc(OCC(=O)N2CCCC2)c1,11.9
3,N#C/C(=C\N1CCOCC1)c1ccccc1,-0.9
4,Cc1ccc(N2C(=O)NC(=O)/C(=C\c3ccsc3)C2=O)cc1,66.1
5,COc1ccc(Br)cc1/C=C/C(=O)Nc1cc(-c2nc3ccccc3o2)ccc1C,5.1
6,CCOC(=O)C1=C(O)/C(=C/c2ccc(C(C)(C)C)cc2)SC1=Nc1ccccc1,-6.6
7,CC(=O)N1CC2(CC(=O)OC(C)C)CN(C(C)=O)CC(CC(=O)OC(C)C)(C1)C2=O,-2.4
8,Cc1ccn(S(=O)(=O)c2ccc(N3CCCC3=O)cc2)n1,10.3
9,C=CCNC(=O)C(=O)NCCCOC,6.1
10,CC1(C)C(=O)N(Cc2ccc(Cl)c(Cl)c2)c2ccccc2N1C(=O)c1cccc([N+](=O)[O-])c1,-9.7
11,C=CCn1c(SCC(C)C)nc(O)c(Cc2ccccc2)c1=O,5.5
12,COC(=O)C1=C(C)NC(=O)CC1c1cc(Br)ccc1OC (stereo not given),2.7
13,Cn1c2ccc(Cl)cc2c2cc(C(=O)C(F)(F)F)ccc21,-5.8
14,Cc1ccn2c(NC(=O)/C=C/c3ccccc3)c(-c3ccccc3)nc2c1,10.7
15,CCCCP(=O)(CCCC)CCP(=O)(c1ccccc1)c1ccccc1,16.4
16,COC(=O)c1c(C)oc2ccc(NS(=O)(=O)c3ccc(Cl)c([N+](=O)[O-])c3)cc12,6.3
17,COC(=O)C1=C(C)NC2=C(C(=O)CC(C)(C)C2)C1c1ccccc1 (stereo not given),8.7
18,CCN(CC)c1ccc(-c2c(C#N)c(N)nc(OC)c2C#N)cc1,0.5
19,COc1ccc(N(CC(=O)Nc2cccc(C)c2C)S(=O)(=O)c2ccccc2)cc1,-1.8
20,CCOC(=O)CCN1C(=O)/C(=C/c2ccccc2)SC1=S,-3.1
21,O=C1C(=Cc2ccc(OCc3ccc(F)cc3)cc2)C(=O)c2ccccc21,-10.4
22,O=C(O)c1cccc(N2C(=O)c3ccc(Br)cc3C2=O)c1,0.1

row,Compound,displacement [%]
1,COc1ccc(CN2CCN(Cc3ccccn3)CC2)cc1,3
2,Cc1cc(Cl)ccc1OCC(=O)Nc1ccc(S(=O)(=O)Nc2onc(C)c2C)cc1,5.6
3,COc1cc(/C=N/n2cnnc2)cc(I)c1OCCOc1cc(C)ccc1C(C)C,-1.9
4,Cc1ccc(N2CC(C(=O)N/N=C/c3cccc(Br)c3)CC2=O)cc1 (stereo not given),-8.3
5,Cn1nnnc1SCc1ccc(F)cc1,-4
6,CCOc1cccc(C(=O)Nc2cccnc2)c1,10.8
7,Cc1cc(C)cc(NCc2cccnc2)c1,15.1
8,Cc1ccc(C)n1-n1cnc2sc3c(c2c1=O)CCCC3,3.8
9,C=CCN1C(=O)/C(=C\c2ccc(OCC(=O)O)c(OC)c2)C(=O)NC1=S,-8.8
10,O=C(NCCNc1ccc(Cl)cc1[N+](=O)[O-])c1cc2ccccc2o1,3.1
11,O=C1/C(=C/c2cccs2)SC(=S)N1Nc1ccccc1,-8.4
12,O=C1C=CC(=NS(=O)(=O)c2ccc(Cl)c([N+](=O)[O-])c2)C=C1,-9.6
13,COC(=O)C1=C(C)NC2=C(C(=O)CC(c3ccccc3)C2)C1c1cccc(I)c1 (stereo not given),-1.7
14,COC(C(=O)N/N=C(\C)c1ccc2c(c1)OCCO2)c1ccccc1 (stereo not given),-2.7
15,COc1ccc(C2NC(=S)NC(C)=C2C(=O)Nc2ccccc2Cl)c(OC)c1 (stereo not given),-25.2
16,Cc1c(N/C=C/C(=O)c2ccc(Br)cc2)c(=O)n(-c2ccccc2)n1C,-4.2
17,Cc1cc(C(=O)Nc2nc(-c3ccccc3)c(C)s2)ccc1[N+](=O)[O-],-14.3
18,COc1cc(C(=O)N=Nc2c(O)[nH]c3ccc(Br)cc23)cc(OC)c1OC,11.5
19,CC(C)c1ccc(/C=C2\SC(=S)NC2=O)cc1[N+](=O)[O-],-17.4
20,CCOC(=O)c1csc(NC(=O)c2cc(OC)c(OC)c(OC)c2)n1,-17.8
21,Cc1ccc([N+](=O)[O-])cc1NC(=S)NC(=O)c1ccc(Cl)cc1,-7.3
22,C/C(=N\NC(=O)c1[nH]nc(-c2ccccc2)c1C)c1ccc(O)cc1,-14.8
